In PubChem BioAssay AID504339 (National Center for Advancing Translational Sciences (NCATS), 2011):
In all, about 390,000 compounds went through this assay and about 17,000 (4.4%) were called active. Inconclusive results, whose numbers are uncertain, are shown with a selection of clear calls. Calls follow the shape of the dose curve; as a rule, active = well fitted inhibition curve with a large enough effect; inconclusive = small, poorly fitted or top-dose-only effect; inactive = no such curve, though single readings can be large or run the other way. Potencies of inconclusive entries are doubtful fits and often do not repeat.

Biological target: Lysine-specific demethylase 4A (Homo sapiens) (UniProt O75164)
Assay: qHTS Assay for Inhibitors of JMJD2A-Tudor Domain; also: nearly all actives have a fitted effect of over 50% in size
Details: AlphaScreen JMJD2A-Tudor / H3K4me3 peptide binding; activity change, negative = inhibition: at 114 µM (top of the series)
% is scaled to controls: 0 for no effect and ±100 for the full control effect; potency is read from the fitted curve at half-maximal effect; tags tell the direction and shape of the fitted curve.

UniProt O75164, sequence (O75164 whole entry, looked up, the tested form may be a part): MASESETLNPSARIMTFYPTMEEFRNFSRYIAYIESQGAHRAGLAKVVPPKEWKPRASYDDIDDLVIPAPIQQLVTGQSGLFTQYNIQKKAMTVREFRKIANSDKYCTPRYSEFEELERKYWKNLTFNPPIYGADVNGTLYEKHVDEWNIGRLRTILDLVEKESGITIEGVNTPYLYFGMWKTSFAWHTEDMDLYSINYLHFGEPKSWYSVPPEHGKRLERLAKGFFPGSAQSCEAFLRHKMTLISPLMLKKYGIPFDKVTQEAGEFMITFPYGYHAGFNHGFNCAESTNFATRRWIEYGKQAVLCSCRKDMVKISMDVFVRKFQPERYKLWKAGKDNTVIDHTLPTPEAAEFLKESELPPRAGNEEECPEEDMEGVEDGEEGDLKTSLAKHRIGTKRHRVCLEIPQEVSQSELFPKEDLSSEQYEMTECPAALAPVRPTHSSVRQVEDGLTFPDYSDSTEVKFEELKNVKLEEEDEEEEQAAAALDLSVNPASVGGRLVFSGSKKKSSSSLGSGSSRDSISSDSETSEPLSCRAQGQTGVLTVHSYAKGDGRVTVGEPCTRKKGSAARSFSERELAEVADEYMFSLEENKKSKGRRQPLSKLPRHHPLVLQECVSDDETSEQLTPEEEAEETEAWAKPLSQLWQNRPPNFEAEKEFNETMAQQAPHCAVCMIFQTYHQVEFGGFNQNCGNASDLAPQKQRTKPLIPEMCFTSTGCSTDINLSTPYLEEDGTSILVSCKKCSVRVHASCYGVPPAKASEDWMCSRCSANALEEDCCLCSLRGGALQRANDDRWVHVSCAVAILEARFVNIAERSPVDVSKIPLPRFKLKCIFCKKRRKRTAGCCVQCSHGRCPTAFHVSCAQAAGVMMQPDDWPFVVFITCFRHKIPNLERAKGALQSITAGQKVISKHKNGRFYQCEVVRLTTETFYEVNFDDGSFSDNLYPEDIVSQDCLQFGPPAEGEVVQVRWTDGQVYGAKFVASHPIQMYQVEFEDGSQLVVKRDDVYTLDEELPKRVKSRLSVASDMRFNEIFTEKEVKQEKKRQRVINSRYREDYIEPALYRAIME

Potency, inactive:
CCOc1ccc(NC(=O)CNC(=O)c2cccs2)cc1
CC(=O)Nc1ccc(NS(=O)(=O)c2ccc(Cl)s2)cc1
Cc1ccc2cccc(NC(=O)c3ccc(C#N)cc3F)c2n1
O=C1c2ccccc2NC(c2ccc(Cl)cc2Cl)N1O (centres undefined)
Cc1[nH]c(=O)[nH]c(=O)c1Sc1ccccc1[N+](=O)[O-]
O=C(C[C@H]1C/C=C\C[C@@H](Cc2ccc(F)cc2)C(=O)OC[C@@H](Cc2c[nH]c3ccccc23)NC1=O)NCCO
CCn1ccc2cc(S(=O)(=O)N3CCCN(C(=O)NCC(=O)OC)CC3)ccc21
CC(C)(O)[C@H](O)COc1c2occc2cc2ccc(=O)oc12
Cc1nn(CC(=O)NCCCN2CCCC2)c(=O)c2nn(-c3ccccc3)c(C)c12
COc1ccc2nc(C)cc(SCC(=O)N/N=C/c3ccc(O)cc3O)c2c1
CCC(=O)c1cc2c(cc1NC(=O)c1ccc(C)cc1)OCCO2
CNC(=O)c1cc(OCC(F)(F)F)ccc1OCC(F)(F)F
CN(C)S(=O)(=O)c1cccc(NC(=O)CSc2nncn2-c2ccccc2)c1
O/N=C/c1cc2ccccc2n1Cc1ccccc1F
Cc1cccc(OCC(=O)Nc2ccc3oc(-c4ccccc4F)nc3c2)c1
Cc1cccc(NC(=O)CN2CCSc3ccccc32)c1
CC(C)CC(=O)N/C(N)=N/c1nc2ccccc2o1
CCCCNC(=O)N1CCN(c2ccnc3cc(Cl)ccc23)CC1
CN(C(=O)c1ccc(NC(=O)Cc2ccc(NC(=O)C3CCN(C(=O)c4ccccc4)CC3)cc2)cc1)C1CCCC1
CCN(CC)C(=O)CN1C(=O)COCC1=O
CC(=NO)C1CCC2C3CCC4=CC(=NO)CCC4(C)C3C(=O)CC12C (centres undefined)
CC(OC(=O)c1cccc(S(=O)(=O)N2CCN(C)CC2)c1)C(=O)Nc1ccc(C(N)=O)cc1 (centres undefined)
Cc1ccc(S(=O)(=O)NN2Cc3ccccc3C2=N)cc1
CC(=O)C1=C(c2ccc(C)cc2)N(C(C)=O)n2c(nnc2-c2ccccc2)S1
Cc1cc(C)c(NC(=O)Cn2nnc(-c3nc(-c4ccncc4)no3)c2N)c(C)c1
COCCn1c(-c2ccc(-c3ccccc3Cl)o2)nc2c1c(=O)[nH]c(=O)n2CC(C)C

Potency, active:
O=C(N/N=C/c1cc(Cl)cc([N+](=O)[O-])c1O)c1ccccc1NS(=O)(=O)c1cccs1 56.2 µM
C=CCSC(=C(C#N)C#N)c1cc2c([nH]1)CCCC2 50.1 µM
Cc1cc(C)cc(C(=O)OCC(=O)NCc2ccco2)c1 89.1 µM
CCN(CC)S(=O)(=O)c1ccc(C(=O)NC2=C(C(=O)OC)SCC2)cc1 39.8 µM
C(=C\c1sc(Nc2ccccc2)n[n+]1-c1ccccc1)/c1ccccc1 56.2 µM
Cc1c(C)n(CC(O)CN2CCCCC2)c2ccccc12 (centres undefined) 1.58 µM
O=C(COC(=O)CC1CCCC1)Nc1cc2c(cc1Cl)C(=O)c1ccccc1C2=O 56.2 µM

Potency, inconclusive:
COc1ccc(N2Nc3n[nH]c(N)c3N2)cc1 100 µM [inhibitor, partial curve]
CC1CCC(NC(=O)CN(C)S(=O)(=O)c2ccc3c(c2)c(=O)n(C)c(=O)n3C)CC1 (centres undefined) 17.8 µM [inhibitor, full curve]
COc1ccc(N(C(C)C(=O)N/N=C/c2ccc(OCC(C)C)cc2)S(C)(=O)=O)cc1 (centres undefined) 39.8 µM [inhibitor, partial curve]
CCN(CC)C(=O)c1sc2c(c1C)c(=O)n(-c1ccc(C)c(C)c1)c(=O)n2Cc1cccc(Cl)c1 56.2 µM [inhibitor, partial curve]
O=C(CC(=O)Nc1ccccc1C(=O)O)NNC(=O)Cc1ccccc1 7.94 µM [inhibitor, full curve, poor fit]
Cc1c(C(=O)N2CCOCC2)c(S(=O)(=O)Nc2ccc(C(C)C)cc2)c(C)n1C 17.8 µM [inhibitor, full curve, poor fit]
CNC(=S)N(CCc1c(C)[nH]c2ccccc12)Cc1ccco1 56.2 µM [inhibitor, partial curve]
COc1ccc(C(=O)OCC[N+]2(C)CCOCC2)cc1 22.4 µM [inhibitor, single point]
COc1ccc(C(=O)NCc2nnc(SCCOc3ccccc3)n2C)cc1 14.1 µM [inhibitor, full curve]
O=C(CN1c2ccccc2Sc2ccccc21)NNC(=S)Nc1ccc(Cl)cc1 31.6 µM [inhibitor, full curve]
c1ccc(CCCN2CCN(c3ccccc3)CC2)cc1 56.2 µM [inhibitor, partial curve, poor fit]
CN1CCC(=NNC(=O)C(=O)NC2CCCCC2)CC1 89.1 µM [inhibitor, single point]
COc1ccc(C(=O)N/C(=C\c2ccc(OC)c(OC)c2)C(=O)N2CCCCC2)cc1 35.5 µM [inhibitor, partial curve]
O=c1c2cn[nH]c2nc(SCc2ccccc2F)n1-c1ccc(Br)cc1 56.2 µM [inhibitor, partial curve]
CNC(=O)c1c(O)c2cccc3c2n(c1=O)CCC3 89.1 µM [inhibitor, single point]
Cc1cccc(/C=N/N2CCN(c3ccccc3)CC2)c1 56.2 µM [inhibitor, partial curve]
COC(=O)C1=C(C(=O)OC)[C@@H]2N(C)c3ccccc3[C@@]23C[C@@H](C(=O)OC)N(C(=O)c2cccs2)C3=N1 35.5 µM [inhibitor, partial curve]
COc1ccc(C(C)(C)C)cc1NC(=O)c1[nH]c(C)c(C(C)=O)c1C 56.2 µM [inhibitor, partial curve, poor fit]
COc1ccc(-c2csc(Nc3cc(C)ccn3)n2)cc1C 50.1 µM [inhibitor, partial curve]
C/C(=N/n1cnnc1)c1cccnc1 100 µM [inhibitor, single point]
CC(C)(C)OC(=O)CNC(=O)c1nc[nH]c1C(=O)N1CCNCC1 70.8 µM [inhibitor, single point]
Cc1ccc(C(=O)O)cc1NC(=S)NC(=O)c1ccc(-c2ccccc2)cc1 56.2 µM [inhibitor, partial curve]
S=c1[nH]nc(CSc2nc3ccccc3s2)n1C1CCCCC1 50.1 µM [inhibitor, partial curve]
Oc1c(C(Nc2nc3ccccc3s2)c2ccco2)ccc2cccnc12 (centres undefined) 17.8 µM [inhibitor, full curve]
CC(C)OCCCn1c(=O)c2ccccc2n2c(-c3ccc(F)c(F)c3)nnc12 63.1 µM [inhibitor, partial curve]
O=C(c1cnn(-c2ccccc2)c1)c1ccc2ccccc2c1O 25.1 µM [inhibitor, full curve]
Cc1cc(C)cc(C(=O)NC(=S)Nc2ccc3c(c2)OCCO3)c1 15.8 µM [inhibitor, full curve]
O=C(O)c1ccc2nc(CO)[nH]c2c1 79.4 µM [inhibitor, partial curve]
COc1ccc(/C=N/Nc2snc(SC)c2C#N)cc1OC 50.1 µM [inhibitor, partial curve]
CCn1nc(NS(=O)(=O)c2ccc(NC(C)=O)cc2)c2cc3ccc(C)cc3nc21 35.5 µM [inhibitor, partial curve]
CC(C)Oc1cccc(C(=O)NC(=S)Nc2ccccc2)c1 89.1 µM [inhibitor, single point]
Cc1nc2ncnn2c(N2CCN(C(c3ccccc3)c3ccccc3)CC2)c1C 56.2 µM [inhibitor, partial curve]
Cc1nc2c(Br)c(C)nn2c2c1CCC2 39.8 µM [inhibitor, single point]
COC(=O)c1cc2n3ccccc3c(C)c(-c3ccccc3)c-2c1C(=O)OC 56.2 µM [inhibitor, partial curve]
CSCCC(NC(=O)c1ccccc1Br)C(=O)N1CCN(C/C=C/c2ccccc2)CC1 (centres undefined) 56.2 µM [inhibitor, partial curve]
FC(F)(F)c1cccc(NC(=S)N(CCCN2CCCC2)Cc2cccn2Cc2ccc(Cl)cc2)c1 3.55 µM [inhibitor, full curve, poor fit]
C/[N+]([O-])=C\c1cccc(OCCN2CCN(c3ncc(C(F)(F)F)cc3Cl)CC2)c1 20 µM [inhibitor, full curve]
COc1ccc(Oc2cn[nH]c2-c2ccc(OC)cc2O)cc1 11.2 µM [inhibitor, partial curve]
CN(/N=C/c1ccccc1O)C(=S)c1ccccc1 56.2 µM [inhibitor, partial curve]

Activity change, negative = inhibition, inconclusive:
COc1cc(C(c2c(NC(=O)c3ccco3)sc(C)c2C)N2CCOCC2)cc(OC)c1OC (centres undefined) -44.8% [inhibitor]

Activity change, negative = inhibition, inactive:
CN(C)Cc1cc(C(C)(C)C)cc(C(C)(C)C)c1O -11% [at 11.4 µM]
